Consider three molecules from patent US20250051471A1, “Anti-Abcb1 Antibodies” (WILLIAM ROBERT ARATHOON LIVING TRUST DATED AUGUST 29, 2016, priority 2021, published 2025).

For data set [1], the system named is DX5 cells. Briefly: FACS binding to DX5 WT, CD47 KO and ABCB1 KO cells. Conditions: for binding to ABCB1 and CD47 antigens expressed on cancer cell surface: DX5 WT, CD47 KO and ABCB1 KO cells. Format: cell-based, human. The text has this: The mono arm antibodies each have only one binding valency for the target. The wild-type DX5 (DX5 WT) cells express both ABCB1 and CD47 antigens.
The mono arm antibodies only have one binding valency for the target.
The mono arm antibodies each have only one binding valency for the target.
FIGS. 19A-19C show the binding of bispecific humanized ABCB1XCD47 antibodies KB1-1418, KB1-1419 and KB1-1420 to wild-type Adriamycin-resistant DX5 cells, CD4 KO DX5 cells and ABCB1 KO (B1 KO) DX5 cells.
A general note: Flow cytometry measures light scatter and fluorescence of single cells or particles in a stream.

Data set [2] deals with N6/ADR cells. Briefly: Cytotoxicity screening assay (vincristine-induced cytotoxicity). The conditions noted are these: N6ADR drug resistant cell-based leukemia assay. The procedure: The effect of antibodies on vincristine-induced cytotoxicity was evaluated using the drug-resistant N6/ADR cell line. In this assay, vincristine was serially diluted, while the ABCB1 x CD47 BsAbs (or isotype control antibodies) were used at a uniform, saturating concentration. The assay readout was vincristine IC50 in the presence or absence of antibodies. Inhibition of ABCB1 should result in a lower vincristine IC50.
The assay was performed as follows: cells were plated in 0.05 mL of assay media (RPMI-1640+10% FBS) at 5000 cells/well in white, flat bottom 96-well tissue culture plates and incubated overnight at 37° C., 5% CO2. The following day vincristine was prepared at 2X final assay concentration by 1:5 or 1:10 serial dilutions in screening assay media containing test antibodies or control antibodies at 100 μg/mL (2X final concentration), or valspodar, a small molecule ABCB1 inhibitor, at 7 pM (2X final concentration). An equivalent volume (0.05 mL) of the vincristine/antibody mixture was added to the N6/ADR cells and incubated at 37° C., in 5% CO2.
After 72 hours, plates were removed from the incubator and allowed to equilibrate to room temperature. Viability was assessed using the Promega® CellTiter-Glo® Luminescent Cell Viability Assay according to the manufacturer's recommended protocol.

The subject of data set [3] is human Red Blood Cells. The experiment in a line: Antibody binding to human red blood cells by flow cytometry. Format: cell-based. The procedure:
(§1) Antibody binding to human and cynomolgus RBC was assessed by flow cytometry. Normal human and cynomolgus whole blood was obtained from BiolVT. RBC were prepared by centrifugation of whole blood aliquots (0.5 mL) for 5 min at 500xg. Supernatant (plasma) was removed, and RBC washed 3 times in D-PBS+1 mM EDTA. After the final wash, the RBC were resuspended in D-PBS+1 mM EDTA to a final volume of 0.5 mL. Washed RBC were then diluted in flow cytometry buffer (D-PBS+2% FBS+0.05% sodium azide) to 2% and dispensed at […] into 96-well plates. An equivalent volume ([…]) of antibody serially diluted in flow cytometry buffer to 2× final was added to the RBC, and the mixture incubated for 1 hour at room temperature. Next, RBC were washed 3 times with flow cytometry buffer and resuspended in 50 μL of Alexa Fluor®647 conjugated Fab fragment goat anti-human IgG diluted 1:200 in flow cytometry buffer. After 20 minutes at room temperature RBC were washed twice, resuspended in flow cytometry buffer and analyzed using an Invitrogen™ Attune™ NXT flow cytometer. […] Left panel, RBC are gated (R1) based on forward and side scatter. Middle panel, a second gate (R2) is applied to eliminate any remaining doublets or aggregates. Right panel, fluorescence of the R2 gated cells is assessed and a final gate (R3) is set using unstained RBC. Cells falling in the R3 gate are defined as “positive” for binding and reported as the percent (of R2 gated cells) that fall in the R3 gate. The results are presented at percent positive which represents the percent of RBC in the R3 gate.

In data set [4] the test system is cynomolgus Red Blood Cells. The experiment in a line: Antibody binding to cynomolgus red blood cells by flow cytometry. Format: cell-based. The conditions noted are these: percent of RBC in the R3 gate. The procedure:
as §1

The subject of data set [5] is N6/ADR cells. The experiment in a line: Cytotoxicity potency assay (antibody titrated, vincristine constant). The data set is classed as cell-based. The procedure: The relative potency of the samples was evaluated using N6/ADR cells. These cells expressed both ABCB1 and CD47 with the expression of CD47 ˜40-fold higher than ABCB1 as determined by staining with R-phycoerythrin (R-PE) conjugated, commercially available antibodies against ABCB1 (UIC2, Biolegend) and CD47 (CC2C6, Biolegend). This assay also examined the effect of antibodies on vincristine-induced cytotoxicity using the drug-resistant cell line, N6/ADR. However, in this assay format the concentration of vincristine was held constant while the ABCB1 x CD47 BsAbs (or isotype control antibodies) were serially diluted. This assay measured antibody IC50. Lower IC50 meant higher antibody potency.
The potency assay was performed as follows. Cells were plated in 0.05 mL of assay media at 5000 cells/well in white flat bottom 96-well tissue culture plates and incubated overnight at 37° C., 5% CO2. […] An equivalent volume (0.05 mL) diluted antibody/vincristine mixture was transferred to the N6/ADR cells and incubated at 37° C., in 5% CO^2. After 72 hours, plates were removed from the incubator and allowed to equilibrate to room temperature. Viability was assessed using the Promega® CellTiter-Glo® Luminescent Cell Viability Assay according to the manufacturer's recommended protocol.

B1: KB1-1418: humanized ABCB1XCD47 bispecific antibody, HIR2/KbR1 Fc, MRK16v4b common light chain (antibody)
heavy 1: EVQLVESGGVVVQPGGSLRLSCAASGFTFSRYTMSWVRQAPGKGLEWVATISSGGGNTYYPDSVKGRFTVSRDNSKNSLYLQMNSLRTEDTALYYCARYGAGDAWFAYWGQGTLVTVSSASTKGPSVFPLAPSSKSTSGGTAALGCLVKDYFPEPVTVSWNSGALTSGVHTFPAVLQSSGLYSLSSVVTVPSSSLGTQTYICNVNHKPSNTKVDKRVEPKSCDKTHTCPPCPAPELLGGPSVFLFPPKPKDTLMISRTPEVTCVVVDVSHEDPEVKFNWYVDGVEVHNAKTKPREEQYNSTYRVVSVLTVLHQDWLNGKEYKCKVSNKALPAPIEKTISKAKGQPREPQVCTLPPSREEMTKNQVSLSCAVKGFYPSDIAVEWESNGQPENNYKTTPPVLDSDGSFVLVSKLTVDKSRWQQGNVFSCSVMHEALHNHYTQKSLSLSPG
heavy 2: QVQLVQSGAEVKKPGASVKVSCKASGYTFTNYNMHWVRQAPGQRLEWMGTIYPGNDDTSYNQKFKDRVTITADTSASTAYMELSSLRSEDTAVYYCARGGYRAMDYWGQGTLVTVSSASTKGPSVFPLAPSSKSTSGGTAALGCLVKDYFPEPVTVSWNSGALTSGVHTFPAVLQSSGLYSLSSVVTVPSSSLGTQTYICNVNHKPSNTKVDKRV[human IgG1 Fc with changes omitted]
light: DIVMTQTPLSSPVTLGQPASISCRSSQSIVHSTGNTYLEWYQQKPGQPPRLLIYKISNRFSGVPDRFSGSGSGTDFTLKISRVEAEDVGVYYCFQASHFPRTFGQGTKLEIK
modifications: left off: a dimerising Fc or GST
notes: humanized ABCB1XCD47 bispecific antibody, HIR2/KbR1 Fc, MRK16v4b common light chain
With B1, in data set [1], the “binding to ABCB1 and CD47 antigens expressed on cancer cell surface” value was “specifically bind”. For the same molecule, the “binding to the ABCB1 antigen, compared among light chains” value in data set [1] (wild-type and knock out DX5 cells) was “binds better to the ABCB1 antigen”. Besides, in data set [2], the “in vitro potency (cell killing)” value is reported as “significant in vitro potency”.

B2: KB1-1419: humanized ABCB1XCD47 bispecific antibody, HIR2/KbR1 Fc, B1VL6/CDR3v2a common light chain (antibody)
heavy 1: EVQLVESGGVVVQPGGSLRLSCAASGFTFSRYTMSWVRQAPGKGLEWVATISSGGGNTYYPDSVKGRFTVSRDNSKNSLYLQMNSLRTEDTALYYCARYGAGDAWFAYWGQGTLVTVSSASTKGPSVFPLAPSSKSTSGGTAALGCLVKDYFPEPVTVSWNSGALTSGVHTFPAVLQSSGLYSLSSVVTVPSSSLGTQTYICNVNHKPSNTKVDKRVEPKSCDKTHTCPPCPAPELLGGPSVFLFPPKPKDTLMISRTPEVTCVVVDVSHEDPEVKFNWYVDGVEVHNAKTKPREEQYNSTYRVVSVLTVLHQDWLNGKEYKCKVSNKALPAPIEKTISKAKGQPREPQVCTLPPSREEMTKNQVSLSCAVKGFYPSDIAVEWESNGQPENNYKTTPPVLDSDGSFVLVSKLTVDKSRWQQGNVFSCSVMHEALHNHYTQKSLSLSPG
heavy 2: QVQLVQSGAEVKKPGASVKVSCKASGYTFTNYNMHWVRQAPGQRLEWMGTIYPGNDDTSYNQKFKDRVTITADTSASTAYMELSSLRSEDTAVYYCARGGYRAMDYWGQGTLVTVSSASTKGPSVFPLAPSSKSTSGGTAALGCLVKDYFPEPVTVSWNSGALTSGVHTFPAVLQSSGLYSLSSVVTVPSSSLGTQTYICNVNHKPSNTKVDKRV[human IgG1 Fc with changes omitted]
light: DIVMTQSPLSLPVTPGEPASISCRSSQSLVHSNGNTYLEWYLQKPGQSPQLLIYKVSNRFSGVPDRFSGSGSGTDFTLKISRVEAEDVGVYYCFQGSHFPRTFGQGTKLEIKRTVAAPSVFIFPPSDEQLKSGTASVVCLLNNFYPREAKVQWKVDNALQSGNSQESVTEQDSKDSTYSLSSTLTLSKADYEKHKVYACEVTHQGLSSPVTKSFNRGEC
In the case of B2, in data set [1], the “binding to ABCB1 and CD47 antigens expressed on cancer cell surface” value is on record as “specifically bind”. Further, the “in vitro potency (cell killing)” value in data set [2] is on record as “significant in vitro potency”.

B3: Fc/KT14/B1.89v1 huL1(KV2) hmz LC: humanized anti-CD47 mono arm antibody with B1.89v1 huL1(KV2) light chain (antibody)
heavy: QVQLVQSGAEVKKPGASVKVSCKASGYTFTNYNMHWVRQAPGQRLEWMGTIYPGNDDTSYNQKFKDRVTITADTSASTAYMELSSLRSEDTAVYYCARGGYRAMDYWGQGTLVTVSSASTKGPSVFPLAPSSKSTSGGTAALGCLVKDYFPEPVTVSWNSGALTSGVHTFPAVLQSSGLYSLSSVVTVPSSSLGTQTYICNVNHKPSNTKVDKRV[human IgG1 Fc with changes omitted]
light: DIVMTQSPLSLPVTPGEPASISCRSSQTIVHSNGNTYLEWYLQKPGQSPQLLIYKVSKRFSGVPDRFSGSGSGTDFTLKISRVEAEDVGVYYCFQASHFPRTFGQGTKLEIKRTVAAPSVFIFPPSDEQLKSGTASVVCLLNNFYPREAKVQWKVDNALQSGNSQESVTEQDSKDSTYSLSSTLTLSKADYEKHKVYACEVTHQGLSSPVTKSFNRGEC
modifications: left off: another chain or arm of the molecule
notes: humanized anti-CD47 mono arm antibody with B1.89v1 huL1(KV2) light chain
For the molecule B3, the “Binding to human Red Blood Cells % positive D834” value in data set [3] (donor D834, percent of RBC in the R3 gate) was determined as 0.4%. The “Binding to human Red Blood Cells % positive D835” value in data set [3] (donor D835, percent of RBC in the R3 gate) is on record as 0.1%. Moreover, the “Binding to human Red Blood Cells % positive D836” value in data set [3] (donor D836, percent of RBC in the R3 gate) is reported as 0.2%. Moreover, in data set [3] (donor D837, percent of RBC in the R3 gate), the “Binding to human Red Blood Cells % positive D837” value is reported as 0.3%. In data set [3] (species not given), the “binding to red blood cells (in words)” value is given as “No binding”. In data set [4] (donor Cy744), the “Binding to cynomolgus Red Blood Cells % Positive Cy744” value amounted to 0.9%. Besides, the “Binding to cynomolgus Red Blood Cells % Positive Cy745” value in data set [4] (donor Cy745) stood at 1.7%. Moreover, in data set [4] (donor Cy746), the “Binding to cynomolgus Red Blood Cells % Positive Cy746” value was determined as 5.0%. Further, the “Binding to cynomolgus Red Blood Cells % Positive Cy747” value in data set [4] (donor Cy747) came to 18.8%. The potency increasing cytotoxicity entry in data set [5] is listed as “no effect”.
